# ± gives the standard deviation of the averaged measurements. Whole data set: some 33,000 sequences, median “E-score (dimensionless, -0.5 to 0.5)” near -0.049, cut for the highest 2% near 0.37. Some of the results follow.
# Tested on: T1, PmTbr T-box DNA-binding domain (GST fusion)
# T1 sequence: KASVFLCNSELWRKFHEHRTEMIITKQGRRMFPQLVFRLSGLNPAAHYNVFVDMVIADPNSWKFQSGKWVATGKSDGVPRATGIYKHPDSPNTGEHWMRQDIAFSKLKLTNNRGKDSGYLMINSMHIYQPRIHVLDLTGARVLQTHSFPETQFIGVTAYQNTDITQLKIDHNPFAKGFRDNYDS
# Assay: PBM E-score of 8-mer (E-score (dimensionless, -0.5 to 0.5)); Tbr is Tbrain of the sea star Patiria miniata (Pm) or the sea urchin Strongylocentrotus purpuratus (Sp); higher = stronger binding preference; most listed sequences are background and not binding sites
# Conditions: the construct has about 5 more residues each side
# In short: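 Using the Universal PBM Analysis Suite, every ungapped 8-mer received an enrichment E-score averaged over duplicate arrays. Probe intensities came from double-stranded Universal Agilent oligonucleotide arrays incubated with 200 nM GST-fused Tbr T-box DNA-binding domain in PBS (pH 7.5). That protein was expressed in BL21 E. coli at 20 °C and purified by glutathione affinity chromatography.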
row,Sequence,PBM E-score of 8-mer
1,CGCACGCA,0.102 ± 0.035
2,AGCTCGGA,-0.122 ± 0.04
3,CAGGGACA,-0.163 ± 0.024
4,GTATTTCA,-0.158 ± 0.033
5,CACCCCAC,0.3 ± 0.0046
6,AGTGTTGG,0.3857 ± 0.0032
7,TAGGAAGA,-0.274 ± 0.024
8,GAGGCGCC,0.269 ± 0.018
9,CGTTGTTA,0.157 ± 0.043
10,CGAGTACG,-0.0151 ± 0.037
11,CAACTACG,-0.0958 ± 0.098
12,CGCTGGGA,0.0765 ± 0.033
13,AAATATCG,0.0501 ± 0.066
14,TCTGTAAA,-0.0431 ± 0.014
15,ACCAAGGT,0.0279 ± 0.048
16,ACCATCCT,-0.177 ± 0.042
17,CTGAGGCC,-0.275 ± 0.022
18,TGCTAGAA,0.18 ± 0.036
19,GTCTCCTA,-0.212 ± 0.035
20,GATCGGAA,-0.00021 ± 0.063
21,ATTAACTG,0.0586 ± 0.074
22,GATAATGC,0.103 ± 0.068

row,Sequence,PBM E-score of 8-mer
1,ACAAAGAA,-0.0823 ± 0.024
2,GAATAAGC,-0.118 ± 0.015
3,AATCAGCT,-0.201 ± 0.057
4,CGTGACGC,0.232 ± 0.0054
5,CAAACCCC,-0.155 ± 0.069
6,AACAGCGT,-0.0224 ± 0.014
7,CGAGGCAA,-0.161 ± 0.045
8,CGAATAAA,0.0158 ± 0.011
9,TCACTCGA,0.0862 ± 0.055
10,ATCGGTAA,-0.00438 ± 0.039
11,AGGCACAG,-0.0356 ± 0.0048
12,AGCCTTGA,-0.126 ± 0.063
13,AGTTGCTA,0.3044 ± 0.0029
14,CAGACACA,0.242 ± 0.027
15,CACGGGCG,-0.00187 ± 0.056
16,CTAGGGTC,-0.0801 ± 0.0023
17,CCCTGCGA,0.21 ± 0.029
18,CGTCGCAA,0.156 ± 0.03
19,CGTCGGCA,0.0887 ± 0.063
20,CGGCGTGA,0.327 ± 0.0041
21,CCTACCAA,-0.0681 ± 0.08
22,AGGGTGCA,0.208 ± 0.047

row,Sequence,PBM E-score of 8-mer
1,AACTTGAA,-0.172 ± 0.089
2,CTTTCTGA,-0.106 ± 0.05
3,AAATCACC,0.233 ± 0.013
4,AATCCGCT,0.043 ± 0.038
5,GCACAGGA,-0.162 ± 0.05
6,GTCAAAGA,0.00277 ± 0.089
7,GGATATAC,-0.175 ± 0.043
8,TACGTAGA,-0.139 ± 0.028
9,ACAGCTCA,0.237 ± 0.0098
10,CATTCCGC,-0.0952 ± 0.02
11,ATAGACAG,0.0457 ± 0.014
12,CTCGGTTC,-0.0317 ± 0.029
13,AAGTATTC,-0.202 ± 0.021
14,AGAGTGCT,0.0114 ± 0.0079
15,AACGCCTT,0.3747 ± 0.00064
16,CAGCTCAA,0.0425 ± 0.028
17,ATTTGGCC,-0.117 ± 0.032
18,CGGCGTTA,0.189 ± 0.00085
19,ATCATAAT,-0.0367 ± 0.044
20,ATTGAGCC,0.0447 ± 0.065
21,CAGTTTGC,0.124 ± 0.053
22,CATAAAGG,-0.194 ± 0.048

row,Sequence,PBM E-score of 8-mer
1,CCTCCTAA,-0.218 ± 0.063
2,CAGTCTCC,-0.2 ± 0.074
3,GATAGACC,-0.214 ± 0.02
4,ATAAAAAC,-0.157 ± 0.0025
5,CACCAGGC,0.123 ± 0.0022
6,CACCTAAG,0.381 ± 0.021
7,TATAAGGA,-0.154 ± 0.073
8,TAAGTAGA,0.0354 ± 0.03
9,CCCTTCAG,-0.162 ± 0.012
10,CACCGATA,-0.0611 ± 0.032
11,ATCTCAGA,-0.163 ± 0.017
12,AGTTATGG,-0.161 ± 0.056
13,ATGATGCC,-0.00477 ± 0.022
14,ATTCACGC,0.4258 ± 0.0014
15,GAAGCCCA,-0.192 ± 0.0033
16,GATGTACC,-0.196 ± 0.0084
17,AACCGGGC,-0.257 ± 0.035
18,GACTACGA,0.0448 ± 0.043
19,AGCTGTAA,0.0772 ± 0.044
20,CCGGTGCA,-0.245 ± 0.013

# From the supplement of paper PMC4166925
